# In the antibiotic and cytotoxicity screens of Wong et al. (2023):
# Some of the results follow.
# Tests used:
# HSkMC = human skeletal muscle cells; test: cytotoxicity call (relative viability < 0.9); settings: 10 µM
# S. aureus RN4220 = test: growth inhibition call (relative growth <= 0.2); settings: 50 µM
SMILES,cytotoxicity call (HSkMC),growth inhibition call (S. aureus RN4220)
CC12CCC3C(CCC4CC(O)CCC43C)C1CCC2O (centres undefined),inactive,inactive
CCOC(=O)[C@H]1[C@@H](C=C(C)C)C1(C)C,inactive,inactive
COc1cc2c(c(OC)c1OC)-c1ccc(O)c(=O)cc1C(NC(C)=O)CC2 (centres undefined),inactive,inactive
O=C(O)CF.[NaH],inactive,inactive
O[C@H]1C2CN3CCN(C2)CC1(c1ccccc1)C3,inactive,inactive
NCCc1nnc2n1CCCCC2,inactive,inactive
Cl.N=C(N)NN,inactive,inactive
CC(C)[C@H]1CNC(=O)C1,inactive,inactive
c1cnc(N[C@@H]2CO[C@@]3(CCNC3)C2)cn1,inactive,inactive
COC(=O)[C@]1(Cc2ccccc2N=[N+]=[N-])N=C(c2ccc(OCCCO)cc2)O[C@@H]1c1ccccc1CN=[N+]=[N-],inactive,inactive
Nc1ccc(Cl)cc1Cl,inactive,inactive
N[C@H]1CCN(c2cccnc2)C1,inactive,inactive
COC(=O)CC1=C(C(=O)OC)[C@]2(C(=O)Nc3ccccc32)C(C(=O)OC)C(=N)O1 (some centres undefined),inactive,inactive
O[C@@H]1[C@@H]2C[C@H]3[C@H]1N[C@@H]1C[C@@H]2[C@@H]3[C@H]1O,inactive,inactive
COc1ccc(OC(=O)N(C)C[C@@H]2OCc3ccccc3-c3c(n(C)c4ccccc34)C(=O)N([C@@H](C)CO)C[C@@H]2C)cc1,inactive,inactive
CCn1nnnc1N,inactive,inactive
C=CCOC(=O)[C@@H]1[C@@H](C(=O)OC)N(C)[C@@H](c2ccccc2)[C@]12C(=O)Nc1ccc(I)cc12,inactive,inactive
O=C(NC[C@H]1CC[C@@H]2NC[C@@H]2O1)C1CCCC1,inactive,inactive
O=C1C[C@@H](c2ccc(O)cc2)CN1,inactive,inactive
N[C@@H](C(=O)O)c1nn[nH]n1,inactive,inactive
CN(C)C(=O)[C@H]1CCC2(CCNCC2)CO1,inactive,inactive
C1CN2CN3CCN(CN1C3)C2,inactive,inactive
c1cc2c(c(N3CCNCC3)c1)OCCO2,inactive,inactive
O=C1CC[C@]2(CCCN(Cc3cnc[nH]3)C2)N1,inactive,inactive

SMILES,cytotoxicity call (HSkMC),growth inhibition call (S. aureus RN4220)
CC(C)C[C@@H]1NC[C@@H]2CCCN2C1=O,inactive,inactive
CNC(C)(C)Cc1ccccc1.O=S(=O)(O)O,inactive,inactive
CNc1ccc(C(=O)C[C@@H](O)CC[C@@H](C)[C@H]2OC(=O)C[C@@H](O)CC(=O)C[C@@H](O)C[C@@H](O)C[C@@H](O)C[C@@H](O)C[C@@]3(O)C[C@@H](O)[C@H](C(=O)OC)[C@@H](C[C@@H](O[C@@H]4O[C@H](C)[C@@H](O)[C@H](N)[C@@H]4O)\C=C/C=C\C=C/C=C\C=C/C=C\C=C/[C@@H]2C)O3)cc1,inactive,inactive
CC(=O)Nc1ccc(CCN)cc1,inactive,inactive
COc1cccc(C2(O)CCCCC2CN(C)C)c1.Cl (centres undefined),inactive,inactive
O=C1NC2(CCNCC2)C[C@@H]1c1ccncc1,inactive,inactive
N[C@@H](c1ccccc1)[C@@H](N)c1ccccc1,inactive,inactive
O=C(O)Cc1cnc[nH]1,inactive,inactive
C[C@H](N)Cn1ccc2cc(F)c(Cl)cc21,inactive,inactive
CCN1CCN(c2nc([N+](=O)[O-])nn2C)CC1,inactive,inactive
CN1C[C@H]2CN(Cc3nccn3C)C[C@H]2C1=O,inactive,inactive
COc1ccc(C=O)cc1,inactive,inactive
O=S(=O)(N[C@H]1CCO[C@]2(CCNC2)C1)C1CC1,inactive,inactive
CC1(C)CCC(C)(C)c2cc(-c3csc(CC#N)n3)ccc21,inactive,inactive
COC(=O)C1(O)C[C@H]2CC[C@@H](C1)N2C (some centres undefined),inactive,inactive
CC(=O)Oc1ccc(C=Cc2cc(OC(C)=O)cc(OC(C)=O)c2)cc1,inactive,inactive
O[C@H]1CNC[C@@H]1N1CCCC1,inactive,inactive
C[C@@H]1CCC(=O)O1,inactive,inactive
[N-]=[N+]=Nc1ccc2[nH]ccc2c1,inactive,inactive
N=C(N)NO,inactive,inactive
Cc1[nH]c2ccc(O)cc2c1CCN,inactive,inactive
O=C1CC2(CCNCC2)CN1,inactive,inactive
COC(=O)[C@@]1(Cc2ccccc2N=[N+]=[N-])N=C(c2ccc(OCCCO)cc2)O[C@H]1c1ccccc1CN=[N+]=[N-],inactive,inactive
